Data on one molecule can be found in publication PMC9831603.

The chains behind the UniProt entries cited, without tags or fusion partners. Where a name states a change or a piece, a line headed by the entry shows the natural chain unless it says otherwise. A line that says so, or that is headed by a name, gives the form on record, which may keep a tag or linker.
wild-type Arl3-FLAG (P36405, form named): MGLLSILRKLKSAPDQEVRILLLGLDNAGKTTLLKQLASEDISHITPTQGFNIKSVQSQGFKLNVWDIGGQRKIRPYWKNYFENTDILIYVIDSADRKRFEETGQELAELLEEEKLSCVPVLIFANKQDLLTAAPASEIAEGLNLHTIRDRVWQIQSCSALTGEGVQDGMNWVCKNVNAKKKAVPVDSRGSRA
Arl3-T31N/Y90C-FLAG (P36405, form named): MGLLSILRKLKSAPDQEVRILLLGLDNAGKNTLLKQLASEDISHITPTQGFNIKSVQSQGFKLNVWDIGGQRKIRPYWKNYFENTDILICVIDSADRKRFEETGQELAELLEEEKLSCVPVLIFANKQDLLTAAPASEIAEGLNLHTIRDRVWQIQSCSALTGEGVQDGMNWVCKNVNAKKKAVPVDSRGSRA
Arl3-Y90C/R149H-FLAG (P36405, form named): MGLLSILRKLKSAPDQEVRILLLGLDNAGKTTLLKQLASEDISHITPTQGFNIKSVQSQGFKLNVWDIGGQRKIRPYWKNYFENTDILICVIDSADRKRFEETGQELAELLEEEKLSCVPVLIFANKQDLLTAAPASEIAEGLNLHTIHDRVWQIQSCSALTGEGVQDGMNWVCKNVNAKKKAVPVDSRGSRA
Arl3-D129N-FLAG (P36405, form named): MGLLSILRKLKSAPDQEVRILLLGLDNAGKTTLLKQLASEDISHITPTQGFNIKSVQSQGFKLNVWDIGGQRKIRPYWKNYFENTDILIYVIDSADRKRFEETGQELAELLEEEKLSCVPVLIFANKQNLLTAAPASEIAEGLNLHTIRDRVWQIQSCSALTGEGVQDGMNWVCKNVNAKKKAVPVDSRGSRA
Arl3-Y90C-FLAG (P36405, form named): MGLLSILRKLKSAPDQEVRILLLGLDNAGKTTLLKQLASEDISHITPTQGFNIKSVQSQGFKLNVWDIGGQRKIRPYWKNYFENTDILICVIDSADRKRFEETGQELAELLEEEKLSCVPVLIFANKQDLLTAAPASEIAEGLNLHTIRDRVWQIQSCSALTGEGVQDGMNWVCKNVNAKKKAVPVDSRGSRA

No constants are given. Whether binding was seen depends on the method and setting. Binding seen in cells or lysates may run through a third protein. Some entries that bind do so weakly or less than the wild type.

For test [1], the target named is wild-type Arl3-FLAG (human) (UniProt P36405). Nature of the test: cross-linking + co-IP; in-cell DSS cross-linking and FLAG immunoprecipitation from AD-293 cells co-expressing Arl13B-GFP with Arl3-FLAG constructs (also with Arl3-T31N-myc); immunoblot. A general note: Immunoblotting shows a protein as a band on a membrane.
For test [2] the target is unchanged. Nature of the test: condition: only with co-expressed myc-tagged Arl3-Y90C or Arl3-T31N/Y90C; cross-linking + co-IP; in-cell DSS cross-linking and FLAG immunoprecipitation from AD-293 cells co-expressing Arl13B-GFP, wild-type Arl3-FLAG and myc-tagged Arl3-Y90C or Arl3-T31N/Y90C; immunoblot.
Test [3] has as its target Arl3-T31N/Y90C-FLAG (human) (UniProt P36405). Nature of the test: cross-linking + co-IP; AD-293 cells expressing Arl3-FLAG constructs incubated with 1 mM DSS in PBS, 37°C 10 min, quenched with Tris; FLAG immunoprecipitation; cross-linked complexes with endogenous partners (or co-expressed UNC119a-myc) seen by immunoblot (~65, ~55, ~45 kDa bands).
Test [4] deals with Arl3-Y90C/R149H-FLAG (human) (UniProt P36405). The test is described as above.
The target in a further test is Arl3-D129N-FLAG (human) (UniProt P36405). The test is described as above.
In a further test the target is Arl3-Y90C-FLAG (human) (UniProt P36405). Described as above.

B1: BART (endogenous) (protein, UniProt Q9Y2Y0 1-163)
chain: MDALEGESFALSFSSASDAEFDAVVGYLEDIIMDDEFQLLQRNFMDKYYLEFEDTEENKLIYTPIFNEYISLVEKYIEEQLLQRIPEFNMAAFTTTLQHHKDEVAGDIFDMLLTFTDFLAFKEMFLDYRAEKEGRGLDLSSGLVVTSLCKSSSLPASQNNLRH
Consider B1, for which the binding entry was “binds” in test [1]; “no binding” in test [2]; “no binding” in test [3]; “binds” in test [4]; “binds” with Arl3-D129N-FLAG (human); “binds” with Arl3-Y90C-FLAG (human).
